Laboratory results as given in article PMC4336329 (PLoS ONE, 2015).
Among all 310,000 compounds or so, about 14,000 (4.5%) showed an effect of 50% or more. Effects have a minus sign here. This is one part of the list.

Biological target: human ether-à-go-go-related gene (hERG) potassium channel (human, UniProt Q12809)
Assay: primary screen, population patch clamp on CHO cells stably expressing hERG
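Note: peak tail current of the secondary pulse compared with the same well before compound.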

Sequence of human ether-à-go-go-related gene (hERG) potassium channel (Q12809 whole entry, looked up): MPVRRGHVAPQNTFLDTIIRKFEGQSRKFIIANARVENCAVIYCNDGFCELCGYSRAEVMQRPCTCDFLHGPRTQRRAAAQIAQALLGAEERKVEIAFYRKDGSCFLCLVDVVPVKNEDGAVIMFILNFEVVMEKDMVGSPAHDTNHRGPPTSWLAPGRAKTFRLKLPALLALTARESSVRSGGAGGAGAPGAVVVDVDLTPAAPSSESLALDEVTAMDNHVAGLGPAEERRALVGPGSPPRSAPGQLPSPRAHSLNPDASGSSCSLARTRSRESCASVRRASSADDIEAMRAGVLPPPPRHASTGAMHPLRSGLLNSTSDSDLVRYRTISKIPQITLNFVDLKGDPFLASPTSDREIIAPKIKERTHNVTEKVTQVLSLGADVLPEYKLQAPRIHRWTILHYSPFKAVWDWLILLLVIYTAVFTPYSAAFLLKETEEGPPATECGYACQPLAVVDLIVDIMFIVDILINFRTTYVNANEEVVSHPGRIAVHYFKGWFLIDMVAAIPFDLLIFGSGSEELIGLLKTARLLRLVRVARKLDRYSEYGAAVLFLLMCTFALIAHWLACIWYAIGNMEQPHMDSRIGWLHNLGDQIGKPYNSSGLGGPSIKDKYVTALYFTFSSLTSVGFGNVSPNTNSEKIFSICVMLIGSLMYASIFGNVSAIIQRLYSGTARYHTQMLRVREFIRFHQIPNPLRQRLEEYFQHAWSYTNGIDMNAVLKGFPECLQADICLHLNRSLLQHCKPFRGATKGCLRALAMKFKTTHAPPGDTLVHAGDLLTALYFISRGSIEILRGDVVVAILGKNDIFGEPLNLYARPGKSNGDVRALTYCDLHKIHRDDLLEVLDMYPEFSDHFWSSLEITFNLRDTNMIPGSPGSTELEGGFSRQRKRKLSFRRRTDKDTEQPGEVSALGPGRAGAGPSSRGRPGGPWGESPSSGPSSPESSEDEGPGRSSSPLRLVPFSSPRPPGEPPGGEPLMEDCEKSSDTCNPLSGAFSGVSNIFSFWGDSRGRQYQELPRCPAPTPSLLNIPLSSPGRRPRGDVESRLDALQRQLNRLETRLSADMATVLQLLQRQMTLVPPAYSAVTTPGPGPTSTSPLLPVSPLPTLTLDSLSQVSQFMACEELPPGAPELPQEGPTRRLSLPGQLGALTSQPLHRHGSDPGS

SMILES | hERG current change (%, negative = inhibition) at 10uM
CCOC(=O)COC(=O)c1ccc(O)cc1 | 4.03%
CC1CSc2n(-c3cccc(C(F)(F)F)c3)cc(-c3ccccc3)[n+]21.[Br-] (centres unmarked) | -35.7%
COc1cccc(NC(=O)c2ccc3nc(C)sc3c2)c1 | 4.64%
CCC(C)NC(=O)CCC(=O)Nc1ccc2nc(N3CCOCC3)cc(C)c2c1 (centres unmarked) | 2.55%
CCc1noc(C)c1C(=O)OCC(=O)c1ccc(OC)c(OC)c1 | -5.3%
COc1cccc(NC(=S)N(CCN(C)C)C(C)c2ccncc2)c1 (centres unmarked) | -34.3%
CN(Cc1ccccc1)c1ccc(C(CC(N)=O)NC(=O)Cc2cccc3ccccc23)cc1[N+](=O)[O-] (centres unmarked) | -16.6%
Cc1sc(NC(=O)c2ccco2)c(C(c2cccnc2)N2CCC(C)CC2)c1C (centres unmarked) | 8.45%
O=C(O)c1cc(-c2cc(C(=O)O)c3ccccc3n2)nc2ccccc12 | 25.5%
COc1ccc(CCNC(=O)CCN2C(=O)C(C)Oc3ccc(C)cc32)cc1OC (centres unmarked) | -6.21%
O=C(COC(=O)c1ccc(S(=O)(=O)Nc2ccccc2)cc1)NCCC1=CCCCC1 | 5.94%
Cc1ccc(SCc2cc(=O)[nH]c(/N=C(\N)Nc3cccc4ccccc34)n2)cc1 | 8.66%
Cc1ccc(NC(=S)NCCN(C2CCCCC2)C2CCCC2)cc1C | -68.1%
CC(C)OC(=O)CCNc1n[nH]c(=O)[nH]c1=O | 4.19%
O=C(Sc1nnnn1C1CCCCC1)c1cccs1 | 11.1%
Cn1ccc(C(=O)OCC(=O)Nc2cccc(Cl)c2)n1 | -1.53%
COc1ccc(OC)c(N2C(N)=NC(N)=NC23CCCC3)c1.Cl | 24.4%
Cn1nnnc1SCCNC(=O)C1CCC(=O)N(CCc2cccc(F)c2)C1 (centres unmarked) | 18%
Cc1ccc2c(c1)C(c1ccccc1)N(C(=O)c1ccc3c(c1)OCO3)CC(=O)N2 (centres unmarked) | -39.5%
Cc1ccc(NC(=O)CSc2nnc3ccc(-c4cccnc4)nn23)cc1 | -49.3%
CC(C)(C)OC(=O)NCCCC[C@H](NC(=O)c1nc[nH]c1C(=O)N1CCN(C(=O)OC(C)(C)C)CC1)C(=O)OC(C)(C)C | 14.7%
Cc1nn(-c2ccccc2)c2[nH]c(=O)c(CNCc3ccc4c(c3)OCO4)cc12 | -28.7%

SMILES | hERG current change (%, negative = inhibition) at 10uM
O=C(Cc1ccc([N+](=O)[O-])cc1)NCc1ccccc1Cl | 20%
CCOc1ccccc1C(=O)Nc1cccc(-c2ccc3nncn3n2)c1 | -30.3%
Cc1nc2ncnn2c(C)c1CCC(=O)N1CCOCC1 | 1.89%
CCCN1CCN(c2ncnc3scc(C4COc5ccccc5O4)c23)CC1 (centres unmarked) | -43.3%
Oc1oc(-c2ccccc2)nc1C=Nc1ccccc1 | 2.8%
CC(C)(C)c1ccc(OCCNC(=S)NC(=O)c2cccnc2)cc1 | -16.3%
COc1ccc(S(=O)(=O)N(CC(=O)NCC2CCCO2)Cc2ccccc2)cc1C (centres unmarked) | -16.8%
COc1ccc(CC(=O)Nc2ccc(S(=O)(=O)Nc3cc(OC)nc(OC)n3)cc2)cc1 | 16.2%
COc1ccc(Br)cc1C(=O)N/N=C/c1ccc2c(c1)n(C)c(=O)n2C | 15.9%
O=C(Nc1ccc(F)cc1)c1cccc(NC(=O)C2C3CC4OC(=O)C2C4C3)c1 (centres unmarked) | -34.3%
CCOC(=O)c1sc(NC(=O)COC(=O)CNC(=O)c2ccco2)c(C(=O)OCC)c1C | 4.08%
CCN(CC)CCOC(=O)c1ccc(NC(=O)c2ccc(Cl)c(S(=O)(=O)N3CCCCCC3)c2)cc1.Cl | 13.7%
COc1ccc2[nH]c(=O)c(CN(C(=O)NC3CCCCC3)C3CCCC3)cc2c1 | -16.6%
Cn1c2c(c(=O)n(C)c1=O)C(c1ccccc1OC(F)F)C1=C(CCCC1=O)N2 (centres unmarked) | 0.976%
Cc1csc(SC(C)C(=O)NCC2CCCO2)n1 (centres unmarked) | -11.7%
CC(C)C[C@H](NC(=O)NCCC1=CCCCC1)C(=O)O | -4.82%
O=C(Nc1cc(Cl)ccc1O)C1CC(c2c(F)cccc2Cl)=NO1 (centres unmarked) | 23.4%
O=C(CCNC(=O)C1CCN(S(=O)(=O)c2ccc(F)cc2)CC1)NCc1ccc(F)cc1 | -3.96%
COC(=O)CSc1nnc(SCc2ccc(OC)cc2)s1 | 12.1%
COc1cc(/C=C/C(=O)c2c(O)cc(C)oc2=O)cc(OC)c1O | 24.5%
CCSc1nnc(NC(=O)NC(CC)(C(F)(F)F)C(F)(F)F)s1 | 14.8%
COc1ccc(/C=N/N=C2/NC(=O)C(CC(=O)O)S2)cc1OS(=O)(=O)c1ccccc1 (centres unmarked) | 25.7%

SMILES | hERG current change (%, negative = inhibition) at 10uM
O=C(COc1ccc2ccccc2c1)NCC(=O)N/N=C/c1ccco1 | -2.74%
CCn1nc(C(=O)NNC(=O)c2ccccc2)c2ccccc2c1=O | -1.09%
COc1ccc(-c2cc(C(=O)O)sc2C)cc1 | 12.1%
COc1ccc(CCCC(=O)N/N=C\c2cccs2)cc1 | 27.2%
CC(=O)N1c2ccc(S(=O)(=O)N3CCC(C(=O)N4CCCC(C)C4)CC3)cc2CC1C (centres unmarked) | 13.7%
Cc1ccc(S(=O)(=O)NC(=O)Nn2c(C)nnc2C)cc1 | 28.3%
COc1ccc(CCNC(=O)C2CC(=O)N(c3ccc(C(C)(C)C)cc3)C2)cc1OC (centres unmarked) | -6.6%
O=C(NCCc1ccco1)C(=O)NCCC1CCCCN1S(=O)(=O)c1ccccc1 (centres unmarked) | -34.6%
Cc1ccc(NC2=Nc3ccccc3CC2)cc1 | -18.2%
Cc1c(Cl)c([N+](=O)[O-])nn1CC(=O)NCc1cccnc1 | 15.7%
O=C(N/N=C/c1cccc2ccccc12)c1ccc(CN2CCOCC2)cc1 | -12.6%
Cc1ccc(C(=O)N[C@@H](C)CN2C3=NC[C@H](C(C)C)N3C[C@H]2Cc2ccc(O)cc2)cc1Br | -77.7%
O=C1CSC(c2ccccc2)N1c1ccc(F)cc1F (centres unmarked) | 4.37%
Cc1c(NC(=O)C(c2ccccc2)c2ccccc2)cccc1C(=O)O | 16%
FC(F)(F)c1cc(CCN2C(=S)NC[C@@H]2c2ccccc2)cc(C(F)(F)F)c1 | 6.67%
COCCNC(=O)C(c1ccc(O)cc1)N(C(=O)CCC(=O)Nc1nccs1)c1cccc(C)c1 (centres unmarked) | 19.5%
C=CCn1cnc2c(nnn2Cc2ccc(F)cc2)c1=O | 12.9%
Cc1cccc(C)c1OCC(=O)Nc1cccc(NC(=O)c2ccco2)c1 | -23.1%
COc1ccc(NC(=O)C2CCCN2C(=O)NCc2ccccc2)cc1 (centres unmarked) | 12.2%
CC(=O)c1c(N2CCN(C)CC2)[nH]c(-c2ccccc2)nc1=S | -13.2%
CC1(C)CC(=O)C=C(Nc2ccc(S(N)(=O)=O)cc2)C1 | 11.4%
Cc1[nH]n(-c2ccc(Cl)cc2)c(=O)c1/C=N/c1nnc(-c2ccccc2)s1 | 22.9%

SMILES | hERG current change (%, negative = inhibition) at 10uM
CN(C)c1ccc(C=Nc2ccccc2C(N)=O)cc1 | -0.385%
O=C(N=C1SC2CS(=O)(=O)CC2N1c1ccccc1)C1CCCCC1 (centres unmarked) | 11.9%
COc1ccc(C(=O)N/N=C(\C)CC(=O)NC2CCCCC2)c(OC)c1 | -10.3%
c1ccc(CNCCN2CCNCC2)nc1 | 4.01%
COc1cccc(C2Nc3ccccc3C(=O)N2c2ccc(F)cc2)c1O (centres unmarked) | 7.47%
Cc1cccc(CSc2nn3c(=O)c(C)nnc3s2)c1 | -6.93%
O=C(C1=C(O)C(=O)N(c2ccccc2)C1c1ccc([N+](=O)[O-])cc1)c1cccs1 (centres unmarked) | 9.84%
Cc1ccc(C(=O)COC(=O)C(C)N2C(=O)C3C4C=CC(C4)C3C2=O)cc1C (centres unmarked) | 6.78%
Cc1ccc(NS(=O)(=O)c2ccc(C(=O)N3CCN(c4ccccn4)CC3)cc2)cc1 | -12.5%
CCCn1nnnc1NCc1ccc(SC)cc1 | 14.1%
COc1ccc(/C=C/C(=O)NCCCNC(=O)/C=C/c2ccc(OC)c(OC)c2)cc1OC | -26.1%
O=C(COc1coc(CN2CCc3ccccc3C2)cc1=O)Nc1cccc(Cl)c1 | -0.853%
COc1ccc(C2/C=C\CN(S(=O)(=O)c3cccc4cccnc34)CC(=O)N2Cc2ccc(F)cc2)cc1 (centres unmarked) | 1.44%
O=C(Nc1ccc(Br)cc1)c1ccc(CSC2=NCCS2)cc1 | 5.57%
O=C(Oc1ccc(Cl)cc1)N1CCCCC1 | 1.42%
CC1CCN(C(=O)C2CCN(S(=O)(=O)c3cccc4nonc34)CC2)CC1 | -21.8%
CCOc1ccc2[nH]c(C(=O)N/N=C/c3cccc(OC)c3OC)cc2c1 | -5.55%
O=C(c1cccs1)c1cn(CC(=O)N2CCc3ccccc3C2)c2ccccc12 | 7.09%
Cl.O=C(c1ccco1)N(CCCN1CCOCC1)c1nc(-c2ccc(Cl)cc2)cs1 | -13.4%
CC1=NNC(=O)C1Cc1c(Cl)cccc1Cl (centres unmarked) | 5.03%
